Measurements as given in PubChem BioAssay AID488969 (Vanderbilt High Throughput Screening Facility, 2010).
In all, about 110,000 compounds were measured (“z-score”: median about -0.1, highest 2% from about 2 on). The list shows a part of the results. Active and inactive are the calls of the source.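 The calls were made as follows: active = z-score in the third read window above 3 or below -3; inactive = the rest.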

Target: Metabotropic glutamate receptor 8 (Rattus norvegicus) (UniProt P70579)
Assay: rat mGluR8 modulators via GIRK flux, primary screen, cell-based, thallium flux, HTS (AID 488969)
Conditions: HEK293 rat mGluR8, GIRK (G protein-gated inwardly rectifying potassium channel) thallium flux, FluoZin2; at 10 µM; stronger effect = higher value; submaximal glutamate (EC20) added with thallium

Sequence of UniProt P70579 (P70579 whole entry, looked up): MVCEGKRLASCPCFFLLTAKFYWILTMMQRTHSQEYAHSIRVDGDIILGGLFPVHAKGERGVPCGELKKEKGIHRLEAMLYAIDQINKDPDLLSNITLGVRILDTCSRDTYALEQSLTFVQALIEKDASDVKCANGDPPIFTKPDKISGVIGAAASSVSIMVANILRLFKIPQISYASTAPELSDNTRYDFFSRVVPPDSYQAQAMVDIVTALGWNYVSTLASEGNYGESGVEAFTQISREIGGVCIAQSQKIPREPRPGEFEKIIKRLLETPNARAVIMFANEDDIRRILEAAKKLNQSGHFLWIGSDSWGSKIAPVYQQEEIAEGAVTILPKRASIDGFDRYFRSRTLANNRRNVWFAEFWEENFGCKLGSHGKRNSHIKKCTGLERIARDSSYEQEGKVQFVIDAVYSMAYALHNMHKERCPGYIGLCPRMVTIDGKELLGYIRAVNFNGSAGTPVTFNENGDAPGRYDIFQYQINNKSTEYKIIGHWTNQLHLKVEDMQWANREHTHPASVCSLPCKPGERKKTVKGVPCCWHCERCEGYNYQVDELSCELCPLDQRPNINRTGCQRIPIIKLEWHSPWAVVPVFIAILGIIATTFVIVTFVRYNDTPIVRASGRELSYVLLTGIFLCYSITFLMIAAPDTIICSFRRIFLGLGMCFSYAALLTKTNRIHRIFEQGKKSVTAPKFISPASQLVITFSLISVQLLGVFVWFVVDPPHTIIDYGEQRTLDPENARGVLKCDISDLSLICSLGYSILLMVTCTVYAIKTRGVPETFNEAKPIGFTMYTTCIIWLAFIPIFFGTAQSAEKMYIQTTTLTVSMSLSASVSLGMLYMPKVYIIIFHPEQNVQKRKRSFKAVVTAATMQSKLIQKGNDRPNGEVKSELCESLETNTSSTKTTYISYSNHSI

Point of comparison: CC(C)(C)c1cc(-n2ccnc2)n2ncc(-c3ccc(Cl)cc3)c2n1, z-score 0.402. Against it:
- CCn1nc(C)c(/C=N/NC(=O)Cc2ccc(Cl)cc2)c1C — lower, 0.274
- CCOC(=O)C(C(=O)OCC)C(C(=O)OCC)N1CCOCC1 (stereo unspecified) — lower, 0.163
- Cn1c(SCC(=O)NCc2cccs2)nnc1-c1ccco1 — lower, -0.0179
- COCCNC(=O)c1nn2cccnc2c1Cl — lower, -0.587
- CCOCCCNC(=O)CN1C(=O)/C(=C\c2ccc(C)cc2)Sc2ccccc21 — lower, -0.241
- COc1ccccc1-c1cc(C(F)(F)F)n2ncc(S(=O)(=O)c3ccccc3)c2n1 — lower, -0.206
- O=[N+]([O-])c1ccc(OCC(O)CN2CCN(c3ccccc3F)CC2)cc1 (stereo unspecified) — lower, -0.357
- Nc1nonc1OCCc1ccccc1 — lower, 0.363
- COc1ccccc1N=C(C)C1=C(O)COC1=O — lower, -0.206
- O=C(Nc1nnc(-c2ccccc2Cl)o1)c1cccnc1 — lower, -0.363
- CCC1(C)Cc2c(C#N)c(N)n(N)c(=S)c2CO1 (stereo unspecified) — lower, -0.24
- COc1ccc(OCCSc2nc3ccccc3n2CC(=O)O)cc1 — higher, 0.432
- CC#CCN(CC#CC)S(=O)(=O)c1ccc(-n2cnnn2)c(OC)c1 — lower, -0.162
- O=C(NCCC1=CCCCC1)c1cnsn1 — lower, -0.0586
- O=S(=O)(N/N=C\C=C\c1ccccc1)c1ccc(Br)cc1 — lower, -0.289
- COc1ccc(NC(=O)CCN2C(=O)c3ccc([N+](=O)[O-])cc3C2=O)c(OC)c1 — lower, -0.0788
- Cn1c(=O)c2c(ncn2CC(COCc2ccc(Cl)cc2)OCc2ccc(Cl)cc2)n(C)c1=O (stereo unspecified) — lower, -0.2
- Cc1cc(C)cc(N2C(=O)C3CC=CCC3C2=O)c1 (stereo unspecified) — lower, 0.129
- COc1ccc(S(=O)(=O)N2Cc3ccccc3CC2C(=O)N2CCOCC2)cc1 (stereo unspecified) — lower, 0.235
- COC(=O)c1ccc(Oc2nc(N3CCCCC3)nc(N3CCOCC3)n2)cc1 — lower, -0.157
- CCN(C(=O)c1ccccc1Cl)c1ccccc1 — lower, -0.51
- O=C(NCCN=C1NS(=O)(=O)c2ccccc21)c1ccncc1 — lower, -0.177
- COCCCn1c(SCc2ccccc2)nc2cc(OC)c(OC)cc2c1=N — lower, -0.26
- Cc1cc(C(=O)Nc2c(C)n(C)n(-c3ccccc3)c2=O)cs1 — lower, -0.144
- CCc1ccccc1NCC(=O)Nc1ccc(Cl)c(C(F)(F)F)c1 — lower, -0.0436
- CCOC(=O)Cn1c(=NC(=O)C(C)(C)C)sc2cc([N+](=O)[O-])ccc21 — lower, -0.331
- CCN(CC)CCn1c(=S)[nH]c2ncccc2c1=O — lower, 0.0629
- Cc1ccccc1NC(=O)Cc1nc(-c2ccc3ccccc3c2)cs1 — lower, -0.316
- COc1cccc(-c2nc(CS(=O)CC(=O)NC3CCCC3)c(C)o2)c1 (stereo unspecified) — lower, -0.403
- Cc1nnc(SCC(=O)Nc2sc3c(c2C(N)=O)CCCC3)[nH]c1=O — lower, -0.379
- O=C1CN(c2nc(-c3ccccc3)c3ccccc3n2)c2ccccc2N1 — lower, 0.0233
- COc1ccc(OCCn2nnc(-c3ccc(Cl)cc3)n2)cc1 — lower, 0.195
- COCC(C)n1c(SCC(=O)NNC(=O)c2ccccc2)nc2ccccc2c1=O (stereo unspecified) — lower, -0.346
- O=C(Cc1ccc(Cl)cc1)NCCS(=O)c1ccc(Cl)cc1 (stereo unspecified) — lower, 0.254
- Cc1nn(S(=O)(=O)c2cccs2)c(C)c1Sc1ccccc1 — lower, -0.19
- CCOc1ccc(CCNC(=O)CN(C)S(=O)(=O)c2ccc3c(c2)CCC(=O)N3)cc1OCC — lower, 0.0665
- N=C(N)SCc1nc2ccccn2c1Br — lower, 0.308
- O=C(CCc1nc2ccccc2c(=O)[nH]1)OCC(=O)c1ccc(C2CCCCC2)cc1 — lower, 0.117
- CCNC(=S)N1CCN(CCN=CC2=C(O)CC(c3ccco3)CC2=O)CC1 (stereo unspecified) — lower, -0.0719
- CCOc1ccc(C2=Nc3ccc(Br)cc3C(c3ccc(N4CCOCC4)cc3)=NN2)cc1 — lower, -0.548
- O=C(Nc1nc(-c2ccccc2)cs1)C1CCCN(S(=O)(=O)c2cccc([N+](=O)[O-])c2)C1 (stereo unspecified) — lower, 0.108
- Cc1ccc(OCC(=O)N/N=C/c2ccncc2)cc1 — lower, 0.0746
- Cc1c(C(=O)OC(C)C)sc(N)c1C(=O)OC(C)C — higher, 1.8
- COc1cc(/C=N/NC(N)=S)ccc1OC(=O)c1ccc(C)cc1 — lower, -0.0936
- Cc1cc(NS(=O)(=O)c2ccc(Br)s2)no1 — lower, -0.189
- CCn1c(SCC(=O)N/N=C/c2cc(OC)c(O)c(OC)c2)nc2ccccc21 — higher, 0.476
- CCCNC(=S)N1CCC(C(=O)c2ccc(OC)cc2)CC1 — lower, -0.136
- O=C(O)c1ccccc1NC(=O)C1CCCO1 (stereo unspecified) — lower, 0.0656
- O=S(=O)(NCc1ccccc1)c1ccc(Cl)c(S(=O)(=O)NCc2ccccc2)c1 — lower, 0.165
- Cc1cc(NC(=O)CCC2CCCCC2)no1 — lower, 0.0226
- COc1cc(C(=O)Nc2nccs2)c(Br)c(OC)c1OC — lower, 0.273
- O=C(CN1CCCN(Cc2ccc(F)cc2Cl)C1=O)NC1CCCCCC1 — lower, -0.345
- COc1ccccc1Nc1nnc(SCC(=O)N2CCCC2)s1 — lower, -0.227
- Cc1ccc(-n2c(C)cc(C(=O)NS(=O)(=O)c3ccc(C)cc3)c2C)cc1 — lower, -0.116

For CCCOc1cccc(-c2cc(-c3n[nH]c(=S)n3CC)c3ccccc3n2)c1, the z-score was active: 4.22.
